# Measured values as given in the supplement of paper PMC3724861.
# Some of the results follow.
# Tested on: T1, Caupolican (Caup) homeodomain DNA-binding domain
# T1 sequence: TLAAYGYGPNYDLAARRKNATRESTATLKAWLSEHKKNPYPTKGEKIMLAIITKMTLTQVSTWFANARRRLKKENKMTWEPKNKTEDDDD
# Assay: PBM E-score (8-mer, recovered from the published 9-mer minima) (E-score (dimensionless, -0.5 to 0.5)); Drosophila protein; higher = stronger relative binding preference, active = 0.31 or more
# Outline: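 Caup's homeodomain DNA-binding domain (residues 214-303) was made by in vitro transcription and translation and applied at 100 nM to custom-designed protein binding microarrays. Each value is an enrichment score that gives relative binding preference for a short DNA word, with higher meaning stronger. The 8-mer values were recovered from published 9-mer scores, each of which was the minimum of its two constituent 8-mer scores. A cutoff of 0.31 marks candidate sites.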
row,Sequence,PBM E-score
1,AAGACGAG,inactive: 0.0135
2,ATGTCACG,active: 0.367
3,CGATGATC,inactive: 0.0274
4,ACTCGCGG,inactive: -0.178
5,AGGGAGGC,inactive: -0.266
6,AAGCCAGT,inactive: -0.0375
7,AGTCGATG,inactive: 0.0887
8,TTTATAAA,inactive: 0.00384
9,ACTGGAAC,inactive: 0.0633
10,ACGATAAC,inactive: 0.195
11,ACTACACT,inactive: 0.242
12,ATCGCTCG,inactive: -0.0768
13,AATCCCTG,inactive: -0.0218
14,GCAGGGTA,inactive: -0.0187
15,TGGACACA,inactive: 0.199
16,ATGAGGTG,inactive: 0.0779
17,CCTTCTAG,inactive: -0.136
18,CTGTCTGC,inactive: -0.053
19,AGGCTAGA,inactive: -0.142
20,ACTAGGCT,inactive: -0.0507
21,CACGCACC,inactive: -0.0151
22,ACCAGTAC,inactive: 0.116
23,ACGGTTGG,inactive: -0.0648
24,CGACCCCA,inactive: -0.195
25,CTCAACCA,inactive: -0.0732

row,Sequence,PBM E-score
1,CGATAGCA,inactive: -0.0109
2,CTCATCAA,inactive: 0.0222
3,GATATAGA,inactive: 0.0663
4,CATACGGC,inactive: -0.0538
5,AGGGCGCC,inactive: -0.263
6,ATTCGCTA,inactive: 0.0651
7,AATCATCC,inactive: 0.0542
8,AAACCGTA,inactive: -0.00995
9,CAGGCTTA,inactive: -0.128
10,TCCGTAGA,inactive: -0.0927
11,TAAACCTA,inactive: 0.104
12,AGCGAACC,inactive: -0.0416
13,AGGTCACT,inactive: -0.0981
14,ACGGTAGG,inactive: -0.165
15,AGTGGAAC,inactive: -0.00196
16,CTGGGTAC,inactive: -0.0716
17,CGGCATTA,inactive: -0.0155
18,CCCAGCGG,inactive: -0.214
19,ATTGGGCC,inactive: -0.12
20,AACCACGG,inactive: -0.0658
21,ATATAATC,inactive: 0.19
22,GCATGGCC,inactive: -0.134
23,TCGTACGA,≥ 0.14
24,GCCTTCCC,inactive: -0.233
25,CGAACACC,inactive: 0.12

row,Sequence,PBM E-score
1,CATAGTTC,inactive: 0.044
2,CAATGGGG,inactive: -0.17
3,CTGGGGGA,inactive: -0.298
4,CCGCTCTA,inactive: -0.0386
5,AGGAGGAC,inactive: -0.0909
6,AACAAAAT,inactive: 0.209
7,CAGGCTCC,inactive: -0.187
8,AACCATCC,inactive: -0.042
9,AACCTACC,inactive: -0.0822
10,AATACGAG,inactive: 0.118
11,AATGAACG,≥ 0.166
12,AAAGCTGT,inactive: 0.0337
13,GCCAATAA,inactive: 0.0616
14,CTTCTTAC,inactive: -0.081
15,CCCGGCCC,inactive: -0.324
16,TATAAAGA,inactive: 0.0619
17,ACTAAGTC,inactive: 0.0128
18,ACTATCGC,inactive: 0.0186
19,GCGGGGCC,inactive: -0.3
20,ACAGTCCG,inactive: 0.0105
21,CGTATTAA,inactive: 0.0874
22,ACCCTATG,inactive: 0.0592
23,AGCTAGGG,inactive: -0.157
24,ACTCTCGA,inactive: -0.0149
25,CAGCCCAC,inactive: -0.188

row,Sequence,PBM E-score
1,AATTGTGG,inactive: 0.0524
2,ACAGGTCG,inactive: 0.025
3,AACCAACC,inactive: 0.0365
4,ATAGTTAC,inactive: 0.256
5,CTACACTA,inactive: 0.201
6,GGTGTAAA,inactive: 0.24
7,CTTACTTA,inactive: 0.0364
8,CACGTTAC,inactive: 0.117
9,CTGTAGGC,inactive: -0.00926
10,TCTCATCA,inactive: 0.0438
11,ATTAATCG,inactive: 0.0904
12,GTGGGGCA,inactive: -0.247
13,ATCACTTA,inactive: 0.0712
14,GGCTCTGA,inactive: -0.0698
15,ATTATCCA,≥ 0.149
16,CTGTGTTA,inactive: 0.259
17,GGTTTCTA,inactive: -0.0224
18,CCGGCCAA,inactive: -0.219
19,GTCGTTCA,inactive: 0.0698
20,GATTTAAC,inactive: 0.0609
21,CTACGGCA,inactive: -0.0814
22,ACGATACT,inactive: 0.09
23,ATGCGTAG,inactive: 0.0201
24,AATGCCAG,inactive: -0.111
25,CCTGCATC,inactive: -0.0792

row,Sequence,PBM E-score
1,ATTATAGC,inactive: -0.0256
2,ATGCCACC,inactive: -0.161
3,CGGCGAGA,inactive: -0.133
4,CTACATAC,inactive: 0.286
5,AGTACGAA,inactive: 0.0992
6,TAGTCGAA,inactive: 0.114
7,GCTGGCGA,inactive: -0.156
8,CGGAGCAG,inactive: -0.196
9,ATGCCTCA,inactive: -0.045
10,CAGTGGAC,inactive: -0.0371
11,CAACAACA,active: 0.408
12,GTAGTAGA,inactive: 0.0981
13,CGCCAGCA,inactive: -0.18
14,TATATGCA,inactive: 0.141
15,TCAGATAA,inactive: 0.0965
16,CGAAGAGA,inactive: -0.135
17,AGGCATCA,inactive: -0.0707
18,CCGCACCC,inactive: -0.234
19,CGCCGACC,inactive: -0.2
20,ACGCCCAG,inactive: -0.163
21,GGCGGGCA,inactive: -0.243
22,ACGGACCT,inactive: -0.0478
23,AGGAAGCG,inactive: -0.0958
24,AGATCGCA,inactive: 0.0132
25,AACAGTCC,inactive: -0.0302

row,Sequence,PBM E-score
1,GGGGTAAA,inactive: -0.0802
2,AGTAGGAG,inactive: -0.0818
3,AGAAGGTG,inactive: 0.0532
4,GGGACTGA,inactive: -0.121
5,CTGGATGA,inactive: -0.0479
6,CCGCTAGA,inactive: -0.16
7,AGAAAGCT,inactive: -0.0149
8,GACATACC,inactive: 0.169
9,ATACACTG,inactive: 0.183
10,GCTGGGAC,inactive: -0.121
11,ACACTCGG,inactive: 0.00511
12,AATCACTG,inactive: 0.0918
13,GTATGAAC,inactive: 0.154
14,AATCTTTC,inactive: -0.0773
15,GCACCCTA,inactive: -0.0601
16,AATCCGTA,inactive: 0.0362
17,CGGTGCGC,inactive: -0.232
18,CACTGCTC,inactive: -0.0549
19,GGTTATAC,inactive: 0.0489
20,CACGTCTA,inactive: 0.106
21,CGCACGAG,inactive: -0.139
22,CTATACAG,inactive: 0.0968
23,AGTTCTTA,inactive: 0.0818
24,ATATACCC,inactive: 0.125
25,ATGAGAAT,inactive: 0.0775

row,Sequence,PBM E-score
1,CGCGAGCG,inactive: -0.225
2,AAGACACT,inactive: 0.0837
3,AGGTCTGG,inactive: -0.0688
4,GTAACTGA,inactive: 0.0782
5,CGAGCATA,inactive: -0.0162
6,CAAGGCTC,inactive: -0.132
7,CCCGTCCC,inactive: -0.238
8,GGATGCAA,inactive: 0.0225
9,CGAAAAAC,inactive: 0.00524
10,GTTGTGGA,inactive: 0.047
11,AAGTGCCA,≥ 0.0678
12,AAACATAT,active: 0.325
13,CAGCGTAA,inactive: 0.0554
14,CCACAGTC,inactive: -0.0613
15,CGATCGTC,inactive: -0.0814
16,TCAACCGA,inactive: -0.0397
17,CAGTATGG,inactive: -0.061
18,AAACTGGA,inactive: 0.0284
19,CATTACAA,inactive: 0.288
20,ATAGGGGC,inactive: -0.172
21,CACCAGTA,inactive: 0.0717
22,GCAGTGGC,inactive: -0.277
23,AGAGACGA,inactive: -0.0329
24,CCGTGAGC,inactive: -0.127
25,ACCGTTCC,inactive: -0.109

row,Sequence,PBM E-score
1,AATTATGT,inactive: 0.308
2,AAACGTCG,inactive: -0.0455
3,ACTACGCG,inactive: -0.0102
4,AGACCACA,inactive: -0.0303
5,CCGAATCG,inactive: -0.108
6,AGAAGAGC,inactive: -0.0801
7,GAACTGGC,inactive: -0.227
8,CTCCACTA,inactive: -0.0453
9,AATCGCGT,inactive: 0.0224
10,ATCAGTTC,inactive: -0.00132
11,AGATCCAG,inactive: -0.031
12,GAGAGCTC,inactive: -0.215
13,CATTCGCA,inactive: 0.0559
14,GAATGTGA,inactive: 0.0309
15,TCACCTAA,inactive: 0.0557
16,AATCGGTA,≥ 0.149
17,AGTTGGAA,inactive: -0.00767
18,CTCAAAGC,inactive: -0.174
19,AAGGCCCT,inactive: -0.124
20,CCCACCAA,inactive: -0.152
21,ATTAATAG,inactive: 0.129
22,AGTCGCAA,inactive: 0.0168
23,CTGGCTGA,inactive: -0.166
24,GTGTAGTA,active: 0.357
25,AACGTCGT,inactive: -0.0343

row,Sequence,PBM E-score
1,AGGGTCAT,inactive: -0.0271
2,AGCGTACG,inactive: -0.0814
3,GGGCCCCC,inactive: -0.37
4,TGAGCGAA,inactive: -0.0448
5,AACCCCGA,inactive: -0.102
6,CTAGAACA,inactive: 0.222
7,CCGTAAGA,inactive: -0.0394
8,ACCTTAGC,inactive: 0.00415
9,CTAGGGAG,inactive: -0.217
10,TGGTCCAA,inactive: -0.0751
11,ACACGATA,active: 0.322
12,GAAAGCAA,inactive: 0.0589
13,AGGTAGGA,inactive: -0.0302
14,GACCTAAA,inactive: -0.0048
15,AGTGAGTA,inactive: 0.11
16,ACGCCGCC,inactive: -0.235
17,GTCGAGTA,inactive: 0.114
18,AACGCGAA,inactive: 0.0338
19,GTTAGACA,inactive: 0.269
20,CGTGTGTA,inactive: 0.283
21,AATCCGGA,inactive: 0.0501
22,AATGCGTG,inactive: 0.0934
